# Reference: the RNAGym collection of RNA variant scans (doi:10.7554/elife.90254)
# Read counts are not given, so values of variants with three or more changes are uncertain.
# B1: OR4K15 (parent)
# chain: GUUAACGGUCAUAGGCCAUGGAAACUAGGAGCACCAUUUCGCUGCCAGUGAAGAAAUGAACAAAGAAAAUCUGGGCCAGGCAGGCAUCAAAAGAAAUAGUCUUGCGCUCAACCAGAAAGUCUGUAAUCAUUUUAAGGGUA
# Variants of: B1
# Assay: self-cleavage, relative activity (ratio to wild type); higher = more cleavage; in vitro, sequencing; the parent is a self-cleaving ribozyme
row,Variant,self-cleavage
1,A18G U38C A92G U133C,1.93
2,A18G U38C A94G A111G,0.09
3,A18G U39A A51G A126U U127C,0.59
4,A18G U39C A51G,0.91
5,A18G U39C A91G A94U,2.03
6,A18G U43A U102C,1.17
7,A18G U43C A89G,1.58
8,A18G U43C A95C,0.36
9,A18G U43C U108C,0.01
10,A18G U49A A62U,1.57
11,A18G U49A G123C,0.43
12,A18G U49A U102A,0.57
13,A18G U49C A51U A91G U100C,1.5
14,A18G U49C U108A,0.02
15,A18G U57C A66G A92G,0.61
16,A18G U57C U103C,0.13
17,A18G U70C A89G,0.62
18,A18G U70C A94G U103C,0.81
19,A18G U72C A116U,0.03
20,A18G U87C A111G A125U,0.01
21,A18G U100C A116G,0.88
22,A18G U100C A117G,2.71
23,A18G U102C A111G,0
24,A18G U103C U132C,0.7

row,Variant,self-cleavage
1,A18G U108C A118U,0.01
2,A18G U130C U132C,0.82
3,A18G U130C U133C A135G,2.07
4,A18U A22G A23G A110G,0
5,A18U A22G A51G,1.51
6,A18U A22U A24G A54G,0.96
7,A18U A22U A33G A63G A89G U108A A117G,0.05
8,A18U A23G A60G U70A G79U,0.2
9,A18U A23G U100C,1.45
10,A18U A24C A129G U131C,0.96
11,A18U A24G A95C,0.83
12,A18U A24G U100C,1.51
13,A18U A24U A59G,1.71
14,A18U A27U U108C U133C,0
15,A18U A30G A96U A117G,2.27
16,A18U A30G U49G A82G,0.48
17,A18U A30G U108C,0.02
18,A18U A33G A52G A96G U100A,1.29
19,A18U A33G A82G A95G,0.53
20,A18U A36G A67G A129G,1.9
21,A18U A36G A129G,0.91
22,A18U A36U A51G A56G U130C,0.68
23,A18U A36U A78G A82G,0.1
24,A18U A36U A98G,1.23

row,Variant,self-cleavage
1,A18U A47G G48U A68G U72A U87C A111G U132C,0.01
2,A18U A47U A59U A89G,0.58
3,A18U A47U U72A A96C,0.12
4,A18U A51C A62U A67G,1.07
5,A18U A51G A52G A92U A140G,1.28
6,A18U A51G A54G,0.92
7,A18U A51G A90G,0.91
8,A18U A51G A110C A126G,0.12
9,A18U A51U A54G,1.4
10,A18U A51U A78U,0.44
11,A18U A51U U70C,1.2
12,A18U A52G A66G A92G,1.03
13,A18U A52G A116G U139G,0.44
14,A18U A52G U120C U127C U130C,0.36
15,A18U A54G A114G,0.71
16,A18U A55G A126G,1.27
17,A18U A56G A118C,0.67
18,A18U A59G A69G G74A U100C,0.52
19,A18U A59G A96G U100C G136U,2.34
20,A18U A59G U108C G123A,0.04
21,A18U A60G A66G U87C A89G,0.43
22,A18U A60G C88A,1.28
23,A18U A60G U103C,0.2
24,A18U A60G U108C,0.01

row,Variant,self-cleavage
1,A18U A62G A82G A117G,0.19
2,A18U A63G U97C A116G U130C,0.24
3,A18U A64G A89G A92G,1.51
4,A18U A64G A91G U108C,0.02
5,A18U A64G U122C U131C,1.25
6,A18U A66G U100A,0.48
7,A18U A67G U122C,1.55
8,A18U A68G A98G,0.28
9,A18U A69G A94U,1.13
10,A18U A78G U132A,0.19
11,A18U A82G U108C,0.01
12,A18U A86G U87C U108G,0.01
13,A18U A86U A89U,0
14,A18U A89G A94G,1.13
15,A18U A90G U103A A125C,0.05
16,A18U A90G U133C,1.13
17,A18U A91G A134G,1.27
18,A18U A92G U130C U132C,1.05
19,A18U A95G A98G U139C,1.36
20,A18U A116G A118G,0.66
21,A18U A117U A125G,0.84
22,A18U A118G A125G,0.05
23,A18U C42A A47G A86G A117G,0.45
24,A18U C42G A96G,1.75

row,Variant,self-cleavage
1,A18U C46U A56G A91G,0.68
2,A18U G28U A52G A62G A110G,0.16
3,A18U G31A A33C U38C A82G,0.45
4,A18U G48A A60G A96G,1.45
5,A18U G50A A86G A116U C121U,0.28
6,A18U G65A A90G,0.08
7,A18U U26A U49C A91G,0.94
8,A18U U26G U38C A52U A95G A114U,0.12
9,A18U U37C A52G U102C,1.1
10,A18U U37C A52G U103C,1.81
11,A18U U37C A55G A68G U108C U124A,0.02
12,A18U U37C A125G,0.79
13,A18U U37C U131C,0.91
14,A18U U38C G115U,0.07
15,A18U U39A A54G A66G U108C,0.01
16,A18U U39A A66G A67G,1.44
17,A18U U39A U43C A59G A89G,0.64
18,A18U U39C A54G A66G A110G,0.12
19,A18U U39C A90G,1.09
20,A18U U39C A91C,1
21,A18U U43C A47G U103C,0.44
22,A18U U70C U100C,1.97
23,A18U U102A A110G A116G,0
24,A18U U103C C128U,0

row,Variant,self-cleavage
1,A18U U108C U132C,0
2,A18U U108C U133C,0
3,U19A A22G A92G A117G A118U,1.73
4,U19A A22U A47C A66G A82U,0.24
5,U19A A24G A55G,1.81
6,U19A A24G A86G,0.52
7,U19A A30G A59G G106U,0.04
8,U19A A30U A33G U87C,0.24
9,U19A A30U A60G A91G C113U,0.07
10,U19A A30U C32U,1.25
11,U19A A33G A68G A94G A135U,0.06
12,U19A A33G A111G,0.05
13,U19A A33U A51C G80U,0.2
14,U19A A33U A54G G74A,0.15
15,U19A A33U U103C A114G,0.17
16,U19A A36G A67G U70C U131C,0.4
17,U19A A36G U87C U102C U133C,2.73
18,U19A A47U A78G,0.21
19,U19A A51G A54U U72C U100C C113A,0.02
20,U19A A51G A126G,1.17
21,U19A A52G A68G A118U,0.3
22,U19A A52G A69G,0.54
23,U19A A52G U102C U130C A140G,1.9
24,U19A A56G A82G A89G A125G,0.09

row,Variant,self-cleavage
1,U19A A59G A67U A78U,0.4
2,U19A A59G A126G,0.94
3,U19A A62G U72A U108C A114U,0
4,U19A A64G G74U U127G,0.17
5,U19A A64U U120C U122C U132C,0.32
6,U19A A67G U72C,0.17
7,U19A A67U U108C U124C,0
8,U19A A68G A96U,1.42
9,U19A A69G A91G,0.65
10,U19A A78G A94G A118C,0.18
11,U19A A86G A96G,0.42
12,U19A A90G A118G U122C,0.35
13,U19A A91G A96G,1.2
14,U19A A91G A117G,1.39
15,U19A A92G A114U U122A,0.02
16,U19A A96G G106A A110U,0
17,U19A A114U A117G,0.04
18,U19A A116G A135U,0.54
19,U19A C32A A36U U103C U131C,0.14
20,U19A C35G A67U,2.42
21,U19A C35U U39C,0.15
22,U19A C76U A140G,0.19
23,U19A G41A U49C,1.12
